Hit rate of the full screen: of about 5,400 compounds, about 190 (3.5%) showed an effect of 50% or more. This is one part of the list.
These compounds were tested on Vero-E6 (assay: primary screen, phospholipidosis by LipidTOX staining; higher = more effect of the substance). Details: 10 µM.
Procedure: To measure drug-induced PLD in Vero-E6 cells, we used the HCS LipidTOX Red Phospholipidosis Detection Reagent (Invitrogen, #H34351), which is non-toxic to cell growth and remains well retained after aldehyde fixation. In this setup, compounds (at 10 μM concentration) and controls (amiodarone: 10 μM concentration; DMSO: 0.1 v/v %) were added to clear-bottom, 384-well plates (PhenoPlate 384-well, black, optically clear flat bottom, tissue-culture treated, Revvity #6057302) using the Echo Liquid Handler (Labcyte).

Structure (SMILES) | result_ITMP [%]
COc1ccccc1S(=O)(=O)Nc1ccc2c(c1)CN(C)C(=O)N2 | 26.8
CC1CC(OC(=O)C(O)c2ccccc2)CC(C)(C)N1C (stereo not drawn) | -10.3
OC[C@@H](O)[C@@H](O)CO | -7.96
CCN1C[C@]2(OC(=O)c3ccccc3NC(C)=O)CC[C@H](OC)[C@]34C1[C@H](C[C@H]23)[C@@]1(O)C[C@H](OC)[C@H]2C[C@@H]4[C@]1(O)[C@H]2OC | 0
Cc1cc(NCCO)nc(-c2ccc(Br)cc2)n1 | -1.67
COc1ccc(O)c(C(C)(C)C)c1 | -3.96
CCCC[C@H](NC(C)=O)C(=O)N[C@H]1CC(=O)NCCCC[C@@H](C(=O)O)NC(=O)[C@H](Cc2c[nH]c3ccccc23)NC(=O)[C@H](CCCNC(=N)N)NC(=O)[C@@H](Cc2ccccc2)NC(=O)[C@H](Cc2cnc[nH]2)NC1=O | -3.41
CCOC(=O)C12CC1/C(=N\O)c1ccccc1O2 (stereo not drawn) | 0.73
C=C[C@H]1C[N@]2CC[C@H]1C[C@@H]2[C@@H](OC(=O)OCC)c1ccnc2ccc(OC)cc12 | 6.16
N=C(N)SCc1ccc(B(O)O)cc1 | -0.1
CC1(C)O[C@@H]2C[C@H]3[C@@H]4CCC5=CC(=O)C=C[C@]5(C)[C@@]4(F)[C@@H](O)C[C@]3(C)[C@]2(C(=O)CO)O1 | -4.54
CC1(C)[C@H]2CC[C@@]1(C)[C@H](O)[C@@H]2O | -3.19
COc1ccc(-n2c(SCc3nc(-c4ccc(C)cc4)no3)nnc2-c2ccncc2)cc1 | -6.01
N=C(N)SCCc1c[nH]cn1 | 2.68
CCCCCCCCCCCCCCCCCCO | -3.7
OC1(c2ccc(Cl)c(C(F)(F)F)c2)CCN(CCCC(c2ccc(F)cc2)c2ccc(F)cc2)CC1 | 36.2
C[C@@H]1C[C@H]2[C@@H]3CCC4=CC(=O)C=C[C@]4(C)[C@@]3(F)[C@@H](O)C[C@]2(C)[C@@]1(O)C(=O)CO | -3.69
c1ccc(CN2CCC3(CCc4ccccc43)CC2)cc1 | 2.5
CCOC(=O)C1=C(C)NC(c2ccccc2)=C(C(=O)OCc2ccc([N+](=O)[O-])cc2)C1C#Cc1ccccc1 (stereo not drawn) | -1.26
CC(CC(c1ccccc1)c1ccccc1)NC(C)(C)C (stereo not drawn) | 49.7
Nc1c(CC(=O)[O-])cccc1C(=O)c1ccccc1 | -2.23
CC(C)Oc1ccc(C(=O)N[C@H](CNC(=O)CN(C)C)Cc2ccc(-c3cn4cccc([C@H](C)O)c4n3)cc2)cc1Cl | 33
O=C(O)COC(=O)Cc1ccccc1Nc1c(Cl)cccc1Cl | 0.06

Structure (SMILES) | result_ITMP [%]
COc1cc2nccc(Oc3ccc(NC(=O)C4(C(=O)Nc5ccc(F)cc5)CC4)cc3)c2cc1OC | 0.07
CCN(CC)Cc1nccn1-c1ccc([N+](=O)[O-])cc1C(=O)c1ccccc1Cl | 7.66
Fc1cccc(/C=N/N=C/c2cccc(F)c2)c1 | 0.14
O=C(O)/C=C/c1ccc(Cn2ccnc2)cc1 | -0.75
Cc1nc(N)sc1CCN | -2.17
CNC(=O)c1cc(COc2nnc(Nc3ccc(Cl)cc3)c3ccoc23)ccn1 | -0.18
C[CH2][Hg][S]c1ccccc1C(=O)[O-] | 6.82
Cc1ccc(N2CCN(CCC3NC(=O)c4ccccc43)CC2)cc1C (stereo not drawn) | -1.46
Cc1cc(C)cc(C(=O)NOCCCCCC(=O)NO)c1 | -7.42
CCn1nc(C(=O)O)c(=O)c2cc3c(cc21)OCO3 | -0.04
COc1cc2c(cc1OC)C(c1ccc(N)cc1)=NNC(=O)C2 | 1.02
CCCCN1CCC(CCC(=O)c2cc(Cl)c(N)cc2OC)CC1 | 5.01
Cc1cc(/C=C/c2ccc3cc(N(C)C)ccc3[n+]2C)c(C)n1-c1ccccc1 | -6.02
COCCOC(=O)C1=C(C)NC(C)=C(C(=O)OC/C=C/c2ccccc2)C1c1cccc([N+](=O)[O-])c1 (stereo not drawn) | -3.49
C=C[C@H]1C[N@]2CC[C@H]1C[C@@H]2[C@H](O)c1ccnc2ccccc12 | 0.13
O=S1(=O)OC(c2ccc(O)cc2)(c2ccc(O)cc2)c2ccccc21 | -2.78
OC12C3C4CC5C6C4C1C6C(C53)N2CCc1cccc(F)c1 (stereo not drawn) | 4.29
CC(C)(Oc1ccc(C(=O)c2ccc(Cl)cc2)cc1)C(=O)O | -3.84
O=C1c2ccccc2C(Cc2ccnc(F)c2)(Cc2ccnc(F)c2)c2ccccc21 | 4.43
Cc1cc([C@@H](C)Nc2ccccc2C(=O)O)c2nc(N3CCOCC3)cc(=O)n2c1 | -1.81
CC(C)(N)c1nc(-c2ccc(OC(F)(F)F)cc2)c[nH]1 | 42.8
CCCN(CCC)C(=O)C1=Cc2ccc(-c3ccc(C(=O)N4CCCC4)cc3)cc2N=C(N)C1 | 9.89
